# Source: the supplement of paper PMC8728848
# Some of the results follow.
# Legend:
# Test in all cases: glycan array binding signal (z-score within array); higher = stronger binding
# Conditions in all cases: glycan notation: IUPAC condensed, linker removed
# [1] = molecular target: GalNAc(b1-3)Gal(a1-4)Gal(b1-4)GlcNAc
# In short: (§1)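 Negative Z-scores can be read as non-binding. The Z-score is calculated within each array and then averaged across arrays of one protein sequence at different concentrations or buffers and across linkers. Arrays, 3228 in all, were curated from the Consortium for Functional Glycomics database and kept only where the protein sequence was available.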
# [2] = molecular target: GalNAc(b1-3)Gal(a1-4)Gal(b1-4)GlcNAc(b1-3)Gal(b1-4)Glc
# In short: as §1
# [3] = molecular target: GalNAc(b1-3)Gal(a1-6)Gal(b1-4)Glc
# In short: as §1
# GalNAc(b1-3)GalNAc = molecular target: GalNAc(b1-3)GalNAc
# In short: as §1
# GalNAc(b1-3)GlcNAc = molecular target: GalNAc(b1-3)GlcNAc
# In short: as §1
# GalNAc(b1-4)Gal(b1-4)Glc = molecular target: GalNAc(b1-4)Gal(b1-4)Glc
# In short: as §1
# GalNAc(b1-4)GlcNAc = molecular target: GalNAc(b1-4)GlcNAc
# In short: as §1
# [4] = molecular target: GalNAc(b1-4)GlcNAc(b1-2)Man
# In short: as §1
# [5] = molecular target: GalNAc(b1-4)GlcNAc(b1-2)Man(a1-3)[GalNAc(b1-4)GlcNAc(b1-2)Man(a1-6)]Man(b1-4)GlcNAc(b1-4)GlcNAc
# In short: as §1
# [6] = molecular target: GalNAc(b1-4)GlcNAc(b1-3)GalNAc(b1-4)GlcNAc
# In short: as §1
# GalNAc(b1-4)GlcNAc6S = molecular target: GalNAc(b1-4)GlcNAc6S
# In short: as §1
# GalNAc(b1-6)GalNAc = molecular target: GalNAc(b1-6)GalNAc
# In short: as §1
# GalNAc3S(b1-4)GlcNAc = molecular target: GalNAc3S(b1-4)GlcNAc
# In short: as §1
# GalNAc3S(b1-4)GlcNAc3S = molecular target: GalNAc3S(b1-4)GlcNAc3S
# In short: as §1
# [7] = molecular target: GalNAc3S(b1-4)[Fuc(a1-3)]GlcNAc
# In short: as §1
# GalNAc4S6S(b1-4)GlcNAc = molecular target: GalNAc4S6S(b1-4)GlcNAc
# In short: as §1
# GalNAc6S(b1-4)GlcNAc = molecular target: GalNAc6S(b1-4)GlcNAc
# In short: as §1
# Glc(a1-4)Glc = molecular target: Glc(a1-4)Glc
# In short: as §1
# [8] = molecular target: Glc(a1-4)Glc(a1-4)Glc(a1-4)Glc
# In short: as §1
# Glc(a1-6)Glc(a1-6)Glc = molecular target: Glc(a1-6)Glc(a1-6)Glc
# In short: as §1
# [9] = molecular target: Glc(a1-6)Glc(a1-6)Glc(a1-6)Glc
# In short: as §1
# Glc(b1-4)Glc = molecular target: Glc(b1-4)Glc
# In short: as §1
# Glc(b1-6)Glc = molecular target: Glc(b1-6)Glc
# In short: as §1
# GlcA(b1-3)Gal = molecular target: GlcA(b1-3)Gal
# In short: as §1
# GlcA(b1-3)GlcNAc = molecular target: GlcA(b1-3)GlcNAc
# In short: as §1
# GlcA(b1-6)Gal = molecular target: GlcA(b1-6)Gal
# In short: as §1
# [10] = molecular target: GlcA3S(b1-3)Gal(b1-4)GlcNAc(b1-2)Man
# In short: as §1
# [11] = molecular target: GlcA3S(b1-3)Gal(b1-4)GlcNAc(b1-3)Gal(b1-4)Glc
# In short: as §1
# [12] = molecular target: GlcNAc(a1-3)Gal(b1-4)GlcNAc
# In short: as §1
# [13] = molecular target: GlcNAc(a1-4)Gal(b1-3)GlcNAc
# In short: as §1
# [14] = molecular target: GlcNAc(a1-4)Gal(b1-4)GalNAc
# In short: as §1
# [15] = molecular target: GlcNAc(a1-4)Gal(b1-4)GlcNAc
# In short: as §1
# [16] = molecular target: GlcNAc(a1-4)Gal(b1-4)GlcNAc(b1-3)Gal(b1-4)Glc
# In short: as §1
# [17] = molecular target: GlcNAc(a1-4)Gal(b1-4)GlcNAc(b1-3)Gal(b1-4)GlcNAc
# In short: as §1
# [18] = molecular target: GlcNAc(a1-4)Gal(b1-4)GlcNAc(b1-3)Gal(b1-4)GlcNAc(b1-3)Gal(b1-4)GlcNAc
# In short: as §1
# [19] = molecular target: GlcNAc(a1-4)Gal(b1-4)GlcNAc(b1-3)Gal(b1-4)[Fuc(a1-3)]GlcNAc(b1-3)Gal(b1-4)[Fuc(a1-3)]GlcNAc
# In short: as §1
# [20] = molecular target: GlcNAc(a1-6)Gal(b1-4)GlcNAc
# In short: as §1
# [21] = molecular target: GlcNAc(b1-2)Gal(b1-3)GalNAc
# In short: as §1
# [22] = molecular target: GlcNAc(b1-2)Gal(b1-3)GlcNAc
# In short: as §1
# [23] = molecular target: GlcNAc(b1-2)Man(a1-3)[GlcNAc(b1-2)Man(a1-6)]Man(b1-4)GlcNAc(b1-4)GlcNAc
# In short: as §1
# [24] = molecular target: GlcNAc(b1-2)Man(a1-3)[GlcNAc(b1-2)Man(a1-6)]Man(b1-4)GlcNAc(b1-4)[Fuc(a1-6)]GlcNAc
# In short: as §1
# [25] = molecular target: GlcNAc(b1-2)Man(a1-3)[GlcNAc(b1-4)][GlcNAc(b1-2)Man(a1-6)]Man(b1-4)GlcNAc(b1-4)GlcNAc
# In short: as §1
# [26] = molecular target: GlcNAc(b1-2)Man(a1-3)[GlcNAc(b1-4)][GlcNAc(b1-2)Man(a1-6)]Man(b1-4)GlcNAc(b1-4)[Fuc(a1-6)]GlcNAc
# In short: as §1
# [27] = molecular target: GlcNAc(b1-2)[GlcNAc(b1-4)]Man(a1-3)[GlcNAc(b1-2)Man(a1-6)]Man(b1-4)GlcNAc(b1-4)GlcNAc
# In short: as §1
# [28] = molecular target: GlcNAc(b1-2)[GlcNAc(b1-4)]Man(a1-3)[GlcNAc(b1-4)][GlcNAc(b1-2)Man(a1-6)]Man(b1-4)GlcNAc(b1-4)GlcNAc
# In short: as §1
binder,measurement,setting,value
"Nictaba (Nicotiana tabacum), Q94EW1 (protein) MQGQWIAARDLSITWVDNPQYWTWKTVDPNIEVAELRRVAWLDIYGKIETKNLIRKTSYAVYLVFKLTDNPRELERATASLRFVNEVAEGAGIEGTTVFISKKKKLPGELGRFPHLRSDGWLEIKLGEFFNNLGEDGEVEMRLMEINDKTWKSGIIVKGFDIRPN",glycan array binding signal (z-score),[1],-0.298
same,glycan array binding signal (z-score),[2],-0.259
same,glycan array binding signal (z-score),[3],-0.221
same,glycan array binding signal (z-score),GalNAc(b1-3)GalNAc,-0.287
same,glycan array binding signal (z-score),GalNAc(b1-3)GlcNAc,-0.386
same,glycan array binding signal (z-score),GalNAc(b1-4)Gal(b1-4)Glc,-0.287
same,glycan array binding signal (z-score),GalNAc(b1-4)GlcNAc,-0.228
same,glycan array binding signal (z-score),[4],-0.384
same,glycan array binding signal (z-score),[5],0.175
same,glycan array binding signal (z-score),[6],-0.377
same,glycan array binding signal (z-score),GalNAc(b1-4)GlcNAc6S,-0.382
same,glycan array binding signal (z-score),GalNAc(b1-6)GalNAc,-0.337
same,glycan array binding signal (z-score),GalNAc3S(b1-4)GlcNAc,-0.387
same,glycan array binding signal (z-score),GalNAc3S(b1-4)GlcNAc3S,-0.386
same,glycan array binding signal (z-score),[7],-0.387
same,glycan array binding signal (z-score),GalNAc4S6S(b1-4)GlcNAc,-0.387
same,glycan array binding signal (z-score),GalNAc6S(b1-4)GlcNAc,-0.387
same,glycan array binding signal (z-score),Glc(a1-4)Glc,-0.326
same,glycan array binding signal (z-score),[8],-0.316
same,glycan array binding signal (z-score),Glc(a1-6)Glc(a1-6)Glc,-0.295
same,glycan array binding signal (z-score),[9],-0.355
same,glycan array binding signal (z-score),Glc(b1-4)Glc,-0.295
same,glycan array binding signal (z-score),Glc(b1-6)Glc,-0.294
same,glycan array binding signal (z-score),GlcA(b1-3)Gal,-0.31
same,glycan array binding signal (z-score),GlcA(b1-3)GlcNAc,-0.238
same,glycan array binding signal (z-score),GlcA(b1-6)Gal,-0.31
same,glycan array binding signal (z-score),[10],-0.39
same,glycan array binding signal (z-score),[11],-0.387
same,glycan array binding signal (z-score),[12],-0.205
same,glycan array binding signal (z-score),[13],-0.268
same,glycan array binding signal (z-score),[14],-0.298
same,glycan array binding signal (z-score),[15],-0.293
same,glycan array binding signal (z-score),[16],-0.247
same,glycan array binding signal (z-score),[17],-0.26
same,glycan array binding signal (z-score),[18],-0.3
same,glycan array binding signal (z-score),[19],-0.25
same,glycan array binding signal (z-score),[20],-0.332
same,glycan array binding signal (z-score),[21],-0.275
same,glycan array binding signal (z-score),[22],-0.344
same,glycan array binding signal (z-score),[23],2.83
same,glycan array binding signal (z-score),[24],0.805
same,glycan array binding signal (z-score),[25],-0.014
same,glycan array binding signal (z-score),[26],0.03
same,glycan array binding signal (z-score),[27],-0.101
same,glycan array binding signal (z-score),[28],0.103
